# Assay results from article PMC4336329 (PLoS ONE, 2015).
# Screen size: about 310,000 compounds; about 2,200 (0.71%) showed an effect of 50% or more. The effect is printed as a negative number. Some of the results follow.
# Molecular target: human ether-à-go-go-related gene (hERG) potassium channel (human, UniProt Q12809)
# Experiment: primary screen, population patch clamp on CHO cells stably expressing hERG
# human ether-à-go-go-related gene (hERG) potassium channel, sequence (Q12809 whole entry, looked up): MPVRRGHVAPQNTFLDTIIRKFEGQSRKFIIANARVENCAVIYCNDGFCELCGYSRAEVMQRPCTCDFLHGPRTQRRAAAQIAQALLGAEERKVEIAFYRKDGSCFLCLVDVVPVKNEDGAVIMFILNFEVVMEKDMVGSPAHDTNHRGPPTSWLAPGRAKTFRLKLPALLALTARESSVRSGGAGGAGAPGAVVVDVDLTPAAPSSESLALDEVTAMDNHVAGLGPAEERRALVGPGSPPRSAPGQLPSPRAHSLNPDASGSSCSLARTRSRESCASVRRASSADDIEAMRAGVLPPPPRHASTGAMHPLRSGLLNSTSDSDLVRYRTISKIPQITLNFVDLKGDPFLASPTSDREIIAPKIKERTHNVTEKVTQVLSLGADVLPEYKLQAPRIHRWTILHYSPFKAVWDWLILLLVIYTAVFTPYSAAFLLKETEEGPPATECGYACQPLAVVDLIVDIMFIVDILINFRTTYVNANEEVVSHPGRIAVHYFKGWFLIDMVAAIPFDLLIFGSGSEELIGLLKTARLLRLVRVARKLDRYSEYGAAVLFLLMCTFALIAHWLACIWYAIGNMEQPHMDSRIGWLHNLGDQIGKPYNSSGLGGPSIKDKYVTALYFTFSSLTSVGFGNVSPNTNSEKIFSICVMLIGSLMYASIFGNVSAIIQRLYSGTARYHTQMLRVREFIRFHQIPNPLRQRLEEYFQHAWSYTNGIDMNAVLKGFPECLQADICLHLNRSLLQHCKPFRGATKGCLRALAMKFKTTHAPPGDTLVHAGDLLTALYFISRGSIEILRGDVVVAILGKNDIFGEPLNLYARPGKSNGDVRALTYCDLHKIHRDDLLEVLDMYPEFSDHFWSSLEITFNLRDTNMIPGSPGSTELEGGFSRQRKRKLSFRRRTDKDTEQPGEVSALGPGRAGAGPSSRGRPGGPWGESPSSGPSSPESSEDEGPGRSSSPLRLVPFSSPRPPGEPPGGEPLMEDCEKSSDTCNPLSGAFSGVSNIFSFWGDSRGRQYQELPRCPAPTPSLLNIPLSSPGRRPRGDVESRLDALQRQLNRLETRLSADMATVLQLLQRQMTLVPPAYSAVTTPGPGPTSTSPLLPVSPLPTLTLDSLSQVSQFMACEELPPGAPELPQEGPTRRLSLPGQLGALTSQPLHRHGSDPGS
row,SMILES,"hERG current change (%, negative = inhibition) at 1uM [%]"
1,COc1ccc(S(=O)(=O)N2CCCCC2C(=O)O)cc1 (stereo not drawn),9.29
2,Cc1ccc(S(=O)(=O)N2CCN(C(=O)CCc3c[nH]c4ccccc34)CC2)cc1,6.52
3,CN1CCCC1c1cccnc1 (stereo not drawn),15.8
4,C/C(=N\NC(=O)c1ccc(C)cc1C)c1ccc2c(c1)OCO2,1.41
5,CCOC(=O)[C@H]1[C@H]2COc3ccc(C)cc3[C@@H]2N2C(=O)CN(Cc3ccc(C)cc3)C(=O)[C@@]12C,18.9
6,N#Cc1c(N)n(-c2ccc(C(=O)O)cc2)c2nc3ccccc3nc12,7.7
7,O=C(c1ccccc1)c1ncc[nH]1,18.1
8,Cc1ccc(-n2nc3c(SCCN4CCOCC4)nnc(C)c3c2C)cc1,-5.1
9,N#CCC(=O)Nc1ccc(C(=O)N2CCN(c3ccccn3)CC2)cc1,16.3
10,O=C1Nc2ccccc2O/C1=C\c1c(F)cccc1Cl,14.9
11,CC(C)C(=O)Nc1ccc2nn(-c3ccccc3)nc2c1,8.09
12,NC(=O)C1CCN(C(=O)c2ccc(NS(=O)(=O)c3ccc(F)cc3)cc2)CC1,11
13,CN(C)CCCNC(=O)C1(O)c2cc(Br)ccc2NC(=O)N1c1c(F)cccc1F (stereo not drawn),-2.07
14,Cn1c(=O)c2c(nc3sccn32)n(C)c1=O,-3.93
15,CCOc1ccc(NC(=O)CN(C)C(=O)c2cc3c(s2)CCC(C)C3)cc1OCC (stereo not drawn),14
16,CCOC(=O)c1oc2ccccc2c1NC(=O)c1ccc(S(=O)(=O)N(C)C)cc1,14.1
17,COc1ccc(/C=N/Nc2ccccc2C(=O)O)cc1Cn1cc([N+](=O)[O-])cn1,6.26
18,O=C1NC2(CCCCCC2)C(=O)N1Cc1ccccc1Cl,15.6
19,O=C(NC1CCCC1)c1ccc(COCC(F)(F)C(F)F)o1,-5.82
20,O=C(NCC(=O)N(c1ccc(F)cc1)C(C(=O)NCC1CCCO1)c1ccccc1)c1ccco1 (stereo not drawn),0.696
21,CC(C)NC(=S)n1cc(C(=O)c2cc(Cl)cc(Cl)c2O)cn1,14
22,COC(=O)C1CCCCN1C(=O)c1cc(COc2cccc3cccnc23)on1 (stereo not drawn),9.55
23,O=C(COC(=O)c1ccc(F)cc1F)Nc1cccnc1Cl,-24

row,SMILES,"hERG current change (%, negative = inhibition) at 1uM [%]"
1,CCc1ccc(C2=NN(CCC(=O)NC(C)c3ccc4c(c3)OCCO4)C(=O)CC2)cc1 (stereo not drawn),2.13
2,CC(C)c1ccc(O)c(N)c1,3.43
3,COc1ccc(OC)c(S(=O)(=O)n2ccc(C)n2)c1,9.44
4,CCC1C2CN(C(C)=O)CC=C2C(C#N)=C(N)C1(C#N)C#N (stereo not drawn),9.49
5,O=C(COC(=O)/C=C/c1cnc2ccccc2n1)NCC(F)(F)F,14
6,O=C(COC(=O)c1cc2ccccc2oc1=O)Nc1ccc(F)cc1F,2.58
7,CCN(CC)CCn1c(=N)n(CC(O)c2ccco2)c2ccccc21.Cl (stereo not drawn),-54.6
8,O=S(c1ccsc1)c1ccsc1,5.18
9,COc1ccc(OCCSc2nc3ccccc3c(=O)[nH]2)cc1,10
10,CCOC(=O)C1=C(CN2CCN(CCC#N)CC2)NC(=O)NC1c1ccc2c(c1)OCO2 (stereo not drawn),-7.21
11,CCCN(C(=O)c1cccc(S(=O)(=O)N2CCN(Cc3ccccc3)CC2)c1)C1CCS(=O)(=O)C1 (stereo not drawn),0.396
12,CC(C)(CNC(=O)COc1ccccc1Cc1ccccc1)N1CCOCC1,-3.46
13,C=CCOc1cccc(C2/C(=C(/O)c3ccccc3)C(=O)C(=O)N2CCN2CCOCC2)c1 (stereo not drawn),5.04
14,COc1ccc(N(CC(=O)Nc2ccc(F)c(F)c2)S(=O)(=O)c2c(C)[nH]c(=O)[nH]c2=O)cc1,13.3
15,O=C(CSc1ccc(-c2ccco2)nn1)Nc1cccc(F)c1,-1.42
16,CN(CC(=O)Nc1ccc(F)c(F)c1F)C(=O)c1ccc2c(c1)S(=O)(=O)N=C1CCCCCN12,-2.65
17,COc1cc(OC)cc(C(=O)OCC(=O)Nc2ccc3[nH]c(=O)[nH]c3c2)c1,-2.64
18,CCOc1ccccc1OCC(=O)Nc1cccc(S(=O)(=O)N2CCCCCC2)c1,-4.09
19,O=C(COC(=O)c1ncc(Cl)c(Cl)c1Cl)Nc1ccc(Cl)cn1,-35.7
20,CCC(=O)C1CCCN(C(=O)CCc2nnc(-c3ccc4c(c3)OCO4)o2)C1 (stereo not drawn),8.58
21,Cc1ccc(C(=O)/C=C/N(C)C)o1,16.9
22,CC(=O)NCCc1cc2ccc(C)c(C)c2[nH]c1=O,15.4
